Out of some 2,700 compounds screened, about 160 (5.9%) showed an effect of 50% or more. The list shows a part of the results.
Target: Nonstructural protein 3 (Zika virus) (UniProt A0A024AXB9)
[1] = PRVABC59, Concentration 15.0 uM, Number of replicates 1.0
[2] = PRVABC59, Concentration 50.0 uM, Number of replicates 1.0
[3] = PRVABC59, Concentration 10.0 uM, Number of replicates 1.0

UniProt A0A024AXB9, sequence (A0A024AXB9 as listed by the source): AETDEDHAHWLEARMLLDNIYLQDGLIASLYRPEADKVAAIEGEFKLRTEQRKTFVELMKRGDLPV

## Cc1cc(C)n(CCCNC(=O)c2cc(Cl)ccc2NS(=O)(=O)c2ccc(Oc3ccccc3Cl)cc2)n1
[1]
  inhibition: 19.9%

## O=Cc1ccc(N2CCC(C(=O)NCC[C@H](O)c3ccccc3)CC2)cc1
[2]
  inhibition: 21.8%

## O=C(c1cc2ccccc2[nH]1)N1CC[C@H](n2cnc3ccccc32)C1
PRVABC59, Concentration 49.5 uM, Number of replicates 2.0, Standard deviation 3.2229539112941175 %
  inhibition: 2.94%
PRVABC59, Concentration 99.01 uM, Number of replicates 2.0, Standard deviation 2.038958995248382 %
  inhibition: 7.06%
PRVABC59, Concentration 198.0 uM, Number of replicates 2.0, Standard deviation 1.6347939830892861 %
  inhibition: 11.6%

## O=C(c1cc(Cl)ccc1NS(=O)(=O)c1ccc(Oc2ccccc2Cl)cc1)N1CCc2ccccc2[C@H]1c1ccccc1
[1]
  inhibition: 33.2%

## C[C@H]1CN(C(=O)C2CCN(c3ccc(C=O)cc3)CC2)CCN1C(=O)OC(C)(C)C
[2]
  inhibition: 20.3%

## O=Cc1ccc(N2CCC(C(=O)NCc3c(F)cccc3C(F)(F)F)CC2)cc1
[3]
  inhibition: 26.7%

## N[C@@H](Cc1ccc2ccccc2n1)C(=O)O
PRVABC59, Concentration 49.95 uM, Number of replicates 2.0, Standard deviation 2.5640517451549347 %
  inhibition: -7.74%
PRVABC59, Concentration 99.9 uM, Number of replicates 2.0, Standard deviation 2.076409673310798 %
  inhibition: -7.38%

## Cc1cc(CO)c2cccc(Cc3ccccc3NC(=O)c3cnn(Cc4c(C)noc4C)c3)c2n1
PRVABC59, Concentration 49.95 uM, Number of replicates 2.0, Standard deviation 1.0688290739582027 %
  inhibition: 0.076%
PRVABC59, Concentration 99.9 uM, Number of replicates 2.0, Standard deviation 1.8577267037145675 %
  inhibition: 3.25%

## O=C1C[C@@H](NS(=O)(=O)c2ccc(Oc3ccccc3Cl)cc2)CCN1
PRVABC59, Concentration 49.5 uM, Number of replicates 2.0, Standard deviation 3.5340016994019727 %
  inhibition: -4.3%
PRVABC59, Concentration 99.01 uM, Number of replicates 2.0, Standard deviation 1.221682206515692 %
  inhibition: 3.33%
PRVABC59, Concentration 198.0 uM, Number of replicates 2.0, Standard deviation 6.237343299795106 %
  inhibition: 6.53%

## O=C(Nc1c(F)cccc1Br)c1cc(Cl)ccc1NS(=O)(=O)c1ccc(Oc2ccccc2Cl)cc1
[1]
  inhibition: 28.6%

## O=C(c1cc(Cl)ccc1NS(=O)(=O)c1ccc(Oc2ccccc2Cl)cc1)N1CCCN(CCCc2ccccc2)CC1
[1]
  inhibition: 11.4%

## CCCN(C(=O)c1cc(Cl)ccc1NS(=O)(=O)c1ccc(Oc2ccccc2Cl)cc1)[C@@H](C)C(=O)Nc1ccccc1C
[1]
  inhibition: 16.4%

## CC(C)N(Cc1cnn(C)c1)C(=O)C1CCN(c2ccc(C=O)cc2)CC1
[3]
  inhibition: 22.2%

## Cc1cc(CO)c2cccc(CC(=O)Nc3ccc(C(=O)O)o3)c2n1
PRVABC59, Concentration 49.95 uM, Number of replicates 2.0, Standard deviation 1.3790313962849292 %
  inhibition: 42.9%
PRVABC59, Concentration 99.9 uM, Number of replicates 2.0, Standard deviation 0.49288480262410383 %
  inhibition: 40.6%

## Cc1cc(CO)c2cccc(Cc3cccc(C(=O)N[C@@H](C)C(N)=O)c3)c2n1
PRVABC59, Concentration 49.95 uM, Number of replicates 2.0, Standard deviation 0.7183540891801647 %
  inhibition: -2.76%
PRVABC59, Concentration 99.9 uM, Number of replicates 2.0, Standard deviation 0.8913881864758827 %
  inhibition: 0.968%

## O=C(NCc1cccc(OC2CCCC2)c1)c1cc(Cl)ccc1NS(=O)(=O)c1ccc(Oc2ccccc2Cl)cc1
[1]
  inhibition: 15.9%

## COc1ccc(C[C@H]2c3cc(OC)c(OC)cc3CCN2C(=O)C2CCN(c3ccc(C=O)cc3)CC2)cc1OC
[2]
  inhibition: 23%

## CN(C)Cc1ccc(S(=O)(=O)Nc2cc(Cl)cc(C(=O)NC(C)(C)CO)c2)cc1
PRVABC59, Concentration 49.5 uM, Number of replicates 2.0, Standard deviation 0.8292029981621207 %
  inhibition: -3.27%
PRVABC59, Concentration 99.01 uM, Number of replicates 2.0, Standard deviation 0.14749390788823794 %
  inhibition: -3%
PRVABC59, Concentration 198.0 uM, Number of replicates 2.0, Standard deviation 1.088216371392123 %
  inhibition: -2.39%

## Cc1ccc2n1CCN(C(=O)c1cc(Cl)ccc1NS(=O)(=O)c1ccc(Oc3ccccc3Cl)cc1)[C@H]2C
[1]
  inhibition: 8.22%

## COc1cccc(N2C[C@@H](NC(=O)C3CCN(c4ccc(C=O)cc4)CC3)CC2=O)c1
[2]
  inhibition: 22.7%

## CN(C)Cc1ccc(CN(C)C(=O)C2CCN(c3ccc(C=O)cc3)CC2)cc1
[2]
  inhibition: 24.4%

## CN(Cc1ccc(Cl)cc1)C(=O)C1CCN(c2ccc(C=O)cc2)CC1
[3]
  inhibition: 24%

## CNC(=O)c1cc(Cl)ccc1NS(=O)(=O)c1ccc(N2CCN(C)CC2)cc1
PRVABC59, Concentration 49.5 uM, Number of replicates 2.0, Standard deviation 2.486001218656217 %
  inhibition: -1.18%
PRVABC59, Concentration 99.01 uM, Number of replicates 2.0, Standard deviation 0.5614202987498508 %
  inhibition: -4.77%
PRVABC59, Concentration 198.0 uM, Number of replicates 2.0, Standard deviation 0.9410855164569579 %
  inhibition: -8.15%

## O=Cc1ccc(N2CCC(C(=O)NCC(=O)c3ccc(O)cc3)CC2)cc1
[2]
  inhibition: 25.6%

## CN(Cc1nc(-c2cccnc2)no1)C(=O)c1cc(Cl)ccc1NS(=O)(=O)c1ccc(Oc2ccccc2Cl)cc1
[1]
  inhibition: 17.5%

## Oc1c(CNCc2nnc3ccccn23)ccc(F)c1F
PRVABC59, Concentration 49.5 uM, Number of replicates 2.0, Standard deviation 0.43552041298986643 %
  inhibition: 3.78%
PRVABC59, Concentration 99.01 uM, Number of replicates 2.0, Standard deviation 1.449492497625442 %
  inhibition: 5.57%
PRVABC59, Concentration 198.0 uM, Number of replicates 2.0, Standard deviation 1.5520668001329512 %
  inhibition: 11.2%

## O=Cc1ccc(N2CCC(C(=O)Nc3ccc(F)c(Br)c3)CC2)cc1
[2]
  inhibition: 21.1%

## NC(=O)c1ccc(CNC(=O)NCc2ccc(OCc3ccccc3)cc2)cc1
PRVABC59, Concentration 49.5 uM, Number of replicates 2.0, Standard deviation 0.3403841863075598 %
  inhibition: -2.38%
PRVABC59, Concentration 99.01 uM, Number of replicates 2.0, Standard deviation 1.5524843489611484 %
  inhibition: 1.69%
PRVABC59, Concentration 198.0 uM, Number of replicates 2.0, Standard deviation 0.6537868242088397 %
  inhibition: -0.929%

## COc1ccc(CN(C)C(=O)C2CCN(c3ccc(C=O)cc3)CC2)c(OC)c1
[2]
  inhibition: 24.2%

## CC(C)(CO)NC(=O)c1cc(Cl)cc(CCc2ccccn2)c1
PRVABC59, Concentration 49.5 uM, Number of replicates 2.0, Standard deviation 2.485999069166943 %
  inhibition: -2.62%
PRVABC59, Concentration 99.01 uM, Number of replicates 2.0, Standard deviation 3.2080054251149557 %
  inhibition: -2.2%
PRVABC59, Concentration 198.0 uM, Number of replicates 2.0, Standard deviation 3.186673566921152 %
  inhibition: -0.254%

## O=C(c1cc(Cl)ccc1NS(=O)(=O)c1ccc(Oc2ccccc2Cl)cc1)N1CCc2c(Br)cccc2C1
[1]
  inhibition: 16.3%

## Cc1cc(CO)c2cccc(Cc3cccc(C(=O)Nc4cc(O)[nH]n4)c3)c2n1
PRVABC59, Concentration 49.95 uM, Number of replicates 2.0, Standard deviation 1.5206029976078104 %
  inhibition: 11.6%
PRVABC59, Concentration 99.9 uM, Number of replicates 2.0, Standard deviation 1.0224744526793752 %
  inhibition: 28.2%

## O=Cc1ccc(N2CCC(C(=O)Nc3ccc4c(c3)C(=O)NC4=O)CC2)cc1
[2]
  inhibition: 29.5%

## CCN1CCN(c2ccc(NC(=O)c3cc(Cl)ccc3NS(=O)(=O)c3ccc(Oc4ccccc4Cl)cc3)cc2)CC1
[1]
  inhibition: 17.1%

## COc1cc(Cc2cc(N)nc(C(F)(F)F)c2)nc(N2CCNCC2)n1
PRVABC59, Concentration 49.5 uM, Number of replicates 2.0, Standard deviation 3.7983973094805132 %
  inhibition: 3.61%
PRVABC59, Concentration 99.01 uM, Number of replicates 2.0, Standard deviation 3.6119960441516255 %
  inhibition: 6.33%
PRVABC59, Concentration 198.0 uM, Number of replicates 2.0, Standard deviation 4.66573368035723 %
  inhibition: 11.4%

## CC(C)Nc1nc2ccc(C(=O)Nc3nnc4cccnn34)cc2[nH]1
PRVABC59, Concentration 49.5 uM, Number of replicates 2.0, Standard deviation 0.9697827366255707 %
  inhibition: -0.393%
PRVABC59, Concentration 99.01 uM, Number of replicates 2.0, Standard deviation 0.6935537034045963 %
  inhibition: 2.43%
PRVABC59, Concentration 198.0 uM, Number of replicates 2.0, Standard deviation 2.0309794167135116 %
  inhibition: 7.61%

## Cc1nn(Cc2noc(-c3ccccc3)n2)cc1C1CCNCC1
PRVABC59, Concentration 49.5 uM, Number of replicates 2.0, Standard deviation 1.8564024497343552 %
  inhibition: 3.16%
PRVABC59, Concentration 99.01 uM, Number of replicates 2.0, Standard deviation 0.10461286127628412 %
  inhibition: 3.59%
PRVABC59, Concentration 198.0 uM, Number of replicates 2.0, Standard deviation 0.45839451920109286 %
  inhibition: 7.2%

## COc1cc(F)ccc1CNC(=O)c1cc(Cl)ccc1NS(=O)(=O)c1ccc(Oc2ccccc2Cl)cc1
[1]
  inhibition: 28.6%

## O=Cc1ccc(N2CCC(C(=O)N[C@H]3CC(=O)N(Cc4ccccc4)C3)CC2)cc1
[2]
  inhibition: 25.3%

## Cc1ccc2[nH]cc(CCNC(=O)c3cc(Cl)ccc3NS(=O)(=O)c3ccc(Oc4ccccc4Cl)cc3)c2c1
[1]
  inhibition: 32.7%

Reference: ChEMBL document CHEMBL5606458, “ASAP - ZIKV NS2B-NS3 protease fluorescence single point” (2024)
